Experimental data reported in the RNAGym collection of RNA variant scans (doi:10.1073/pnas.2313332121).
This sample is rich in variants without activity.

B1: TPR 5TU (parent)
chain: GGAUCUUCUCGAUCUAACAAAAAAGACAAAUCUGCCACAAAGCUUGAGAGCAUCUUCGGAUGCAGAGGCGGCAGCCUUCGGUGGCGCGAUAGCGCCAACGUUCUCAACUAUGACACGCAAAACGCGUGCUCCGUUGAAUGGAGUUUAUCAUG

Variants of: B1
Experiment: polymerase ribozyme fitness, log enrichment relative to wild type (log ratio); higher = more active; in vitro selection for triplet polymerase activity
Outline: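 Genotype fitness is the logarithm of its enrichment divided by wild-type enrichment, using inverse-variance-weighted averages of replicates. That logarithm is base 2. Enrichment was measured by Illumina sequencing of input and output libraries from one triplicate in vitro selection round, with frozen incubation at −7 °C, on PCR-built, transcribed mutant libraries of each subunit of a heterodimeric triplet polymerase ribozyme, retaining genotypes with ≥10 input reads and ≥1 read per output.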

Variant	polymerase ribozyme fitness (log ratio)
U9G A40G A41C G46A G62A G81A A106G U109C G117C G141C	≤ -4.2
U9G A40U G88C G133U G136A G141A	≤ -4.2
U9G A41U U53A C96A U102A A150U	≤ -4.2
U9G A49C	≤ -4.2
U9G A52G C57U G68C G80C C85G C149U	≤ -4.2
U9G A60G G71A U82C C85A C87U	≤ -4.2
U9G A60G G80C C93A U109A	≤ -4.2
U9G A142G	≤ -4.2
U9G C10A C18U A66U G81U C96U	≤ -4.2
U9G C10G A17G A22G A23U G50A A73G	≤ -4.2
U9G C10U U77G G83A A110G	≤ -4.2
U9G C14A C38G C75G G83A A119C	≤ -4.2
U9G C14U C36U C76A A97U	≤ -4.2
U9G C18G A30U C35G C87G A147G	≤ -4.2
U9G C18G C51U C57U C75G C85U	≤ -4.2
U9G C18G C54G U55C C76A G92U U102A A137U U148A	≤ -4.2
U9G C18G C96U G133U G136A	≤ -4.2
U9G C18U A21U G34U C103G G128U A138U	≤ -4.2
U9G C18U A22G A29U C87G A91U C108G G124C C149G	≤ -4.2
U9G C18U A39G A49C C51A G94U A106G	≤ -4.2
U9G C18U A41C U44G U90G	≤ -4.2

Variant	polymerase ribozyme fitness (log ratio)
U9G C27A G84U C114U C125G G143A	≤ -4.2
U9G C27G U55A C57A G59A	≤ -4.2
U9G C32A A39C C69A C75U G81A	≤ -4.2
U9G C32A U102C U134A A137C	≤ -4.2
U9G C32G G59A G92A G141U	≤ -4.2
U9G C32G G71A	≤ -4.2
U9G C35A A39G G83U G92C	≤ -4.2
U9G C35U A52C U61A C87A U101C C125A	≤ -4.2
U9G C35U G92A G136A U151G	≤ -4.2
U9G C36G G83A A106G G143A	≤ -4.2
U9G C51G G86A	≤ -4.2
U9G C57A G86C G126U U145C	≤ -4.2
U9G C57U G58C G81A C85A	≤ -4.2
U9G C63U A66C G100A	≤ -4.2
U9G C69A U102C	≤ -4.2
U9G C76G A89C G94U C108U A113U	≤ -4.2
U9G C85U G92U U145A	≤ -4.2
U9G C87A U90A G136A	≤ -4.2
U9G C87G C93U C125A	≤ -4.2
U9G C87G U90A C93U U151C	≤ -4.2
U9G C93A C96U	≤ -4.2

Variant	polymerase ribozyme fitness (log ratio)
U9G C93U	≤ -4.2
U9G C96A A97C C105A A107C	≤ -4.2
U9G C103A	-3.73
U9G C105G G143A	≤ -4.2
U9G G11C A16G C54U C69A G143A	≤ -4.2
U9G G11C C27U A28G A40C U53A C54A G92U C96U	≤ -4.2
U9G G11C G46C C57G C87G U90C	≤ -4.2
U9G G34U C85A U139A	≤ -4.2
U9G G50A G83A G133U	≤ -4.2
U9G G50C G68A C87A	≤ -4.2
U9G G58C	≤ -4.2
U9G G59C G62C C85A U109G C129G G143C	≤ -4.2
U9G G59U C87G A97U A107U A150U	≤ -4.2
U9G G68C G83A G84A C149U	≤ -4.2
U9G G71U A91C A106U A115G G124A	≤ -4.2
U9G U13G A20G A39G G65C C72U A91U U134C	≤ -4.2
U9G U15A A98U C108U G141C	≤ -4.2
U9G U15G G68U A120G	≤ -4.2
U9G U31G G65C C79G C85U C131G	≤ -4.2
U9G U45G U56G G58A C85U G92A A97U	≤ -4.2
U9G U53A A66G U78C U102G U148A G152C	≤ -4.2

Variant	polymerase ribozyme fitness (log ratio)
U9G U53A A91G G94C G143A	≤ -4.2
U9G U55A A115G C116U	≤ -4.2
U9G U55G G92U C99U C125A	≤ -4.2
U9G U56A C87A A107G	≤ -4.2
U9G U82A G94C G140C	≤ -4.2
U9G U134G	≤ -4.2
C10A A12G A21C C54A	≤ -4.2
C10A A12G U53A U55A G92C G94C C105U	≤ -4.2
C10A A12U A47U C93G A137G	≤ -4.2
C10A A12U G80C G94A	≤ -4.2
C10A A16U A28G G42A C57U C75G G80A G92U A98U	≤ -4.2
C10A A16U C75G G84U G152C	≤ -4.2
C10A A16U C93G	≤ -4.2
C10A A17C A19C G84A U90A C129A A147U	≤ -4.2
C10A A17C A20C G34U G58C U90G	≤ -4.2
C10A A17C A30G U104A A137C	≤ -4.2
C10A A17C G42U A110G C125U	≤ -4.2
C10A A17G A52G A91G G94U A142G U146G	≤ -4.2
C10A A17G A52U G59C U61A G83U A97C C108U U134A U139G	≤ -4.2
C10A A17U A19G G58C A97G A142C	≤ -4.2
C10A A19U A23G A24G C69A G80A C85U C87U	≤ -4.2
